The full ranking holds about 33,000 sequences; the median of “E-score (-0.5 to 0.5)” is about -0.035, and the highest 2% start at about 0.34. The list shows a part of the results.
target: T1, Mot3 (UniProt P54785); assay: PBM E-score (8-mer binding enrichment) (E-score (-0.5 to 0.5)); higher = stronger / more preferred TF binding; most listed sequences are background and not binding sites; settings: protein concentration: 200 nM; construct: GST-full length
T1 sequence: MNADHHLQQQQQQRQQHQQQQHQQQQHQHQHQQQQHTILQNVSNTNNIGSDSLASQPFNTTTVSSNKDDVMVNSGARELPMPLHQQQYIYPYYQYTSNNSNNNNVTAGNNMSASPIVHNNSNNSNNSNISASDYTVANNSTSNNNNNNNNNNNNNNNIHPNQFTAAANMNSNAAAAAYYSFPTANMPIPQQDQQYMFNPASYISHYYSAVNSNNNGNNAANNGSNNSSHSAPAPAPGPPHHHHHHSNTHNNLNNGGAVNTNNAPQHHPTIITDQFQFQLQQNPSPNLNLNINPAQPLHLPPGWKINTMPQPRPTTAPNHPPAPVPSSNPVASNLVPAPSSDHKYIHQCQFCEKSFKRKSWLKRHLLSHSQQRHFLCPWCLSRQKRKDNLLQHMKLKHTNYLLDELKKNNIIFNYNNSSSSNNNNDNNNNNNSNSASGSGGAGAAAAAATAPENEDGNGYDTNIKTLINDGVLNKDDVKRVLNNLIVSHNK
Summary of the method: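 Yeast transcription factors carrying a GST tag, as full-length proteins or DNA-binding domains, were produced by PURExpress in vitro transcription/translation. About 100-200 nM protein was applied to universal all-10-mer Agilent arrays, double-stranded by primer extension on fresh or once-stripped slides. Bound protein was detected with fluorescent anti-GST, and scans were normalised with masliner. The Universal PBM Analysis Suite gave each ungapped eight-base word, pooled with its reverse complement, an E-score, a modified Wilcoxon-Mann-Whitney statistic.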

Sequence | PBM E-score
GATCTTAA | -0.0152
ACGCTCCG | -0.193
AGGCTTCG | 0.00623
ACGAGATC | -0.0961
GCACGCGC | 0.252
CGGGACGC | -0.273
AAGAGCTC | 0.00626
CTAGCATC | 0.103
ACAACTGT | 0.068
AAGTGCAG | -0.2
CACCTAGG | -0.0296
ACCCGATC | -0.16
AGAGCGCA | -0.3
AACTCGAC | 0.056
ATCCCAAT | -0.0008
AATTTGGG | 0.115
AGTGCCTA | 0.484
ACTGCGAG | -0.237
AAGAGGGT | -0.191
AGTCAATC | -0.161
AGGAACGC | 0.451
GAGCATTA | 0.0561
CTTTCGGA | -0.229
ACTACACC | 0.118
AGGTCTCC | -0.202

Sequence | PBM E-score
CAATAGAA | -0.174
ATCTCCTA | -0.129
CTGAGCCC | -0.191
CTCTCTAA | -0.297
ATGGGGGG | -0.155
GTGGCAAA | -0.223
ACTACGGG | -0.156
ACGTGCAC | 0.048
GCCTGAGC | -0.103
CTCGCGGC | -0.139
CTATACTC | -0.234
AGCCGCCC | -0.104
CGATTCCC | -0.036
AGTGAGTG | -0.136
AGTCGCAC | -0.112
AATTCTTG | 0.0618
ACAAAATA | 0.175
GATGAATC | 0.169
ACTCTAAC | -0.072
CCGAACAG | -0.0905
CGTGTAGC | 0.228
CACTTACG | 0.0989
AACGCCTG | 0.164
ACATCACC | 0.0584
ACAATATG | 0.118

Sequence | PBM E-score
CCATAAAA | -0.0974
GACAGCCA | -0.186
TCACAGAA | 0.0378
CTTGAACC | 0.152
AATATATT | 0.287
CAACCCGC | -0.109
CGCCCAAA | -0.0759
ACTCTCCA | -0.284
ATCCCTTC | -0.163
AACGACGC | 0.157
CGCTGAAC | 0.026
GCCAGTGA | -0.241
GACCACAC | 0.0153
GACCCCTC | -0.29
GGCCCTAC | -0.281
GCGCGCGC | 0.0175
ACCCGGCC | -0.31
AAAGAGTA | 0.0928
AGCTTTGA | -0.112
CGGAAGTC | -0.26
CTTTGTGA | 0.00176
CCTTCTCA | 0.0457
GATTGGTA | -0.00107
AGGCAACG | 0.485
CCTGAAAG | 0.153

Sequence | PBM E-score
AGGTTATA | -0.0192
ATAAAGTC | -0.0357
CCTCGAAG | -0.0601
GCTGAACA | 0.0813
ATACTGAT | 0.119
CCGTAGTA | -0.129
GGCTTCAA | 0.0155
AACCCGAT | -0.0427
CAGGGTAC | 0.0801
CAGCCGGC | -0.346
CTAACCAA | 0.144
CCTGACCC | -0.0948
CAGCGCTA | 0.0202
TACGGTAA | 0.0915
GGGAGTGA | -0.108
AGAAGGCT | -0.0686
AATAGCGC | 0.121
CTCCAGCA | -0.212
ATGACCAA | -0.0129
AACACTCG | -0.0687
GGTCCACA | -0.108
CTACTGGC | -0.182
CTGGCCCC | -0.215
CTCTGAGC | 0.0146
AAAGGACC | -0.00153

Sequence | PBM E-score
GTGTAACA | 0.343
TCGTAAGA | -0.132
ATTGCTAC | -0.0654
AAGAGAAT | 0.0869
GTAGTCAA | 0.0813
AAGTATGA | 0.0108
AAGTGTTC | -0.0251
CGGGAACC | -0.222
CCGAACAC | -0.0162
ACAAGGTA | 0.301
GGATAGCC | -0.314
AGTTAAAA | 0.232
GCCCCTAC | -0.0748
ACCTTTAA | 0.25
AAACTCCG | -0.131
GTATATAC | 0.0541
CTGTCATC | -0.213
CATTAAGC | -0.105
TCGACGCA | 0.0379
AGGCTACT | -0.0824
GTCGACCA | 0.0388
GATTCACC | -0.152
AGCGCACC | -0.0249
ACGGTCGC | -0.158
AGGGTGTA | 0.0879

Sequence | PBM E-score
AAGATCGA | -0.155
CTCGTCCA | -0.123
AATGTGAT | 0.0837
GTCATGAA | -0.116
ATGTCGAC | 0.173
GCCTCGCC | -0.17
AAATGAGG | 0.0473
ATTCTCGG | -0.134
CAAGCCTA | 0.11
CTTTGGAC | 0.018
GTCACCAC | -0.144
ACCAACGA | -0.0281
AGCTTTCG | -0.0766
CAAGGTCC | -0.194
TCCCGAGA | -0.37
GCACAAGA | 0.113
AAACCCCG | 0.117
GATTACTA | 0.122
CCGTACTA | -0.165
ACGAGCAT | -0.123
GCGGGCTA | -0.269
CCAGGGTA | -0.153
CACTAGCG | -0.179
ACGAGTCC | -0.174
GGCCATAC | -0.257

Sequence | PBM E-score
GGACCAAA | -0.222
ACGCTTAC | -0.00046
CATCGTAG | -0.0374
CCTAGTTA | 0.0946
CCCACTCA | -0.103
ATCTATCC | -0.109
AGGTATCA | -0.00093
CATATCAC | 0.0346
ATTGTAGC | 0.053
ACGACACG | 0.298
GTAACCCA | 0.126
AGACTTAG | -0.0932
TATCCCAA | -0.00764
ACGTTACG | 0.138
TATGAGGA | -0.0824
AGTTCGGC | -0.0626
TACATTGA | 0.271
AGGAACAA | 0.401
ACTAAGAA | 0.0396
ATCGAAGC | -0.186
ACAGGGAT | 0.0444
GCTGAGCC | -0.154

— the supplement of paper PMC3334620
